Test results taken from the supplement of paper PMC4967469.
IC50 is the fitted dose that halves viability relative to control wells, and lower means more sensitive; a fit beyond the top or the lowest dose is shown as a bound at that dose. AUC sums up the same curve from the lowest dose to the 256-fold higher top dose: 1 means no effect, lower means more sensitive. A top dose marked as inferred comes from the curve model; the source does not state it.

Compound: N.N.[Cl][Pt][Cl] [Cisplatin]
Assay: Viability of human cancer cell lines after 72 h of drug (GDSC screen)
Details: top dose inferred
Description: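 Human cancer cell lines in 384-well plates, medium with 10% serum, drug for 72 h over a 256-fold dose range (nine 2-fold or five 4-fold steps up to the top dose). Adherent lines were fixed and stained with the nucleic acid dye Syto60, suspension lines read with resazurin; signal relative to control wells, capped at 0 and 100%. One two-parameter sigmoid per drug and line, fitted in a mixed model over all curves with the slope shared within a line.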

Cell Line	AUC	IC50 [µM]
KYSE-50 (oesophagus, adherent, top dose 10 µM)	0.958	> 10
KYSE-70 (oesophagus, adherent, top dose 10 µM)	0.936	> 10
KYSE-140 (oesophagus, adherent, top dose 10 µM)	0.686	2.24
KYSE-150 (oesophagus, adherent, top dose 10 µM)	0.983	> 10
KYSE-220 (oesophagus, adherent, top dose 10 µM)	0.843	7.67
KYSE-410 (oesophagus, adherent, top dose 10 µM)	0.908	> 10
KYSE-450 (oesophagus, adherent, top dose 10 µM)	0.947	> 10
KYSE-510 (oesophagus, adherent, top dose 10 µM)	0.789	3.62
KYSE-520 (oesophagus, adherent, top dose 10 µM)	0.908	> 10
L-363 (myeloma, suspension, top dose 10 µM)	0.927	> 10
L-428 (Hodgkin lymphoma, suspension, top dose 10 µM)	0.898	9.97
L-540 (Hodgkin lymphoma, suspension, top dose 10 µM)	0.867	7.43
LAMA-84 (chronic myeloid leukaemia, suspension, top dose 10 µM)	0.805	5.13
LAN-6 (neuroblastoma, adherent, top dose 10 µM)	0.969	> 10
LB373-MEL-D (melanoma, adherent, top dose 10 µM)	0.902	> 10
LB647-SCLC (small cell lung carcinoma, semi-adherent, top dose 6 µM)	0.904	> 6
LB771-HNC (head and neck, adherent, top dose 10 µM)	0.88	> 10
LB831-BLC (bladder, adherent, top dose 10 µM)	0.97	> 10
LB1047-RCC (kidney, adherent, top dose 10 µM)	0.826	7.14
LB2241-RCC (kidney, adherent, top dose 10 µM)	0.875	> 10

Cell Line	AUC	IC50 [µM]
LB2518-MEL (melanoma, adherent, top dose 10 µM)	0.981	> 10
LC4-1 (lymphoblastic leukaemia, suspension, top dose 10 µM)	0.933	> 10
LC-1-sq (lung squamous cell carcinoma, adherent, top dose 10 µM)	0.878	> 10
LCLC-97TM1 (large cell lung carcinoma, adherent, top dose 10 µM)	0.896	> 10
LCLC-103H (large cell lung carcinoma, adherent, top dose 10 µM)	0.908	> 10
LK-2 (lung squamous cell carcinoma, adherent, top dose 10 µM)	0.953	> 10
LN-18 (glioma, adherent, top dose 10 µM)	0.896	8.13
LN-229 (glioma, adherent, top dose 10 µM)	0.913	> 10
LN-405 (glioma, adherent, top dose 10 µM)	0.943	> 10
LNZTA3WT4 (glioma, adherent, top dose 10 µM)	0.934	> 10
LOU-NH91 (lung squamous cell carcinoma, adherent, top dose 10 µM)	0.937	> 10
LOUCY (T-cell lymphoblastic leukaemia, suspension, top dose 10 µM)	0.891	7.89
LP-1 (myeloma, suspension, top dose 10 µM)	0.99	> 10
LS-123 (large intestine, adherent, top dose 10 µM)	0.957	> 10
LS-180 (large intestine, adherent, top dose 10 µM)	0.979	> 10
LS-411N (large intestine, adherent, top dose 10 µM)	0.946	> 10
LS-513 (large intestine, adherent, top dose 6 µM)	0.951	> 6
LS-1034 (large intestine, adherent, top dose 10 µM)	0.97	> 10
LU-65 (large cell lung carcinoma, suspension, top dose 10 µM)	0.979	> 10
LU-134-A (small cell lung carcinoma, suspension, top dose 10 µM)	0.913	> 10

Cell Line	AUC	IC50 [µM]
LU-135 (small cell lung carcinoma, suspension, top dose 10 µM)	0.915	> 10
LU-139 (small cell lung carcinoma, suspension, top dose 10 µM)	0.942	> 10
LU-165 (small cell lung carcinoma, suspension, top dose 10 µM)	0.985	> 10
LXF-289 (lung adenocarcinoma, adherent, top dose 10 µM)	0.898	> 10
LoVo (large intestine, adherent, top dose 10 µM)	0.936	> 10
M14 (melanoma, adherent, top dose 10 µM)	0.962	> 10
M059J (glioma, adherent, top dose 10 µM)	0.861	9.71
MC116 (B-cell lymphoma, suspension, top dose 10 µM)	0.999	> 10
MC-CAR (haematopoietic neoplasm, suspension, top dose 10 µM)	0.935	> 10
MC-IXC (neuroblastoma, adherent, top dose 10 µM)	0.685	1.76
MCF7 (breast, adherent, top dose 10 µM)	0.93	> 10
MDA-MB-175-VII (breast, adherent, top dose 10 µM)	0.937	> 10
MDA-MB-330 (breast, adherent, top dose 10 µM)	0.983	> 10
MDA-MB-361 (breast, adherent, top dose 10 µM)	0.91	> 10
MDA-MB-415 (breast, adherent, top dose 10 µM)	0.941	> 10
MDA-MB-436 (breast, adherent, top dose 10 µM)	0.766	4.63
MDA-MB-453 (breast, adherent, top dose 10 µM)	0.98	> 10
MDA-MB-468 (breast, adherent, top dose 10 µM)	0.835	6.25
MDST8 (large intestine, adherent, top dose 10 µM)	0.894	> 10
